Results are given in words; binding and its absence hold for the method and conditions named. For some of these results: Binding seen in cells or lysates may run through a third protein. Some binding calls cover weakened binding; strength is not graded here.

By UniProt entry, the sequences of proteins in these tests, tags left out.
UniProt Q13547: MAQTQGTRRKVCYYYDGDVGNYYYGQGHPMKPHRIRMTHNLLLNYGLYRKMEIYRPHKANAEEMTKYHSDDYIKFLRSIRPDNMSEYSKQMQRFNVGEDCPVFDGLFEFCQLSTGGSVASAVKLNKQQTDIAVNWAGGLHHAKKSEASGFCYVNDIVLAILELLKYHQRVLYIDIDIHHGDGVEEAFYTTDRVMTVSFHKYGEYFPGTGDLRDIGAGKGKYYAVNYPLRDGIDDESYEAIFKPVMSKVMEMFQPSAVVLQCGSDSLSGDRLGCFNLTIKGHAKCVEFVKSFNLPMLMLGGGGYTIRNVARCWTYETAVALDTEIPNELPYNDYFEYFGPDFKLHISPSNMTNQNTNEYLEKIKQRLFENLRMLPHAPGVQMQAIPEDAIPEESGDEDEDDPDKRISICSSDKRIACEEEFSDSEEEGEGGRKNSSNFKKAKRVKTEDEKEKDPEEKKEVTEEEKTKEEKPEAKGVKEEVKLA

Assay [1] concerns the target T1, human Sin3B (human (endogenous in KB, HEK293, HCT116, H1299)) (UniProt O75182).
T1 sequence: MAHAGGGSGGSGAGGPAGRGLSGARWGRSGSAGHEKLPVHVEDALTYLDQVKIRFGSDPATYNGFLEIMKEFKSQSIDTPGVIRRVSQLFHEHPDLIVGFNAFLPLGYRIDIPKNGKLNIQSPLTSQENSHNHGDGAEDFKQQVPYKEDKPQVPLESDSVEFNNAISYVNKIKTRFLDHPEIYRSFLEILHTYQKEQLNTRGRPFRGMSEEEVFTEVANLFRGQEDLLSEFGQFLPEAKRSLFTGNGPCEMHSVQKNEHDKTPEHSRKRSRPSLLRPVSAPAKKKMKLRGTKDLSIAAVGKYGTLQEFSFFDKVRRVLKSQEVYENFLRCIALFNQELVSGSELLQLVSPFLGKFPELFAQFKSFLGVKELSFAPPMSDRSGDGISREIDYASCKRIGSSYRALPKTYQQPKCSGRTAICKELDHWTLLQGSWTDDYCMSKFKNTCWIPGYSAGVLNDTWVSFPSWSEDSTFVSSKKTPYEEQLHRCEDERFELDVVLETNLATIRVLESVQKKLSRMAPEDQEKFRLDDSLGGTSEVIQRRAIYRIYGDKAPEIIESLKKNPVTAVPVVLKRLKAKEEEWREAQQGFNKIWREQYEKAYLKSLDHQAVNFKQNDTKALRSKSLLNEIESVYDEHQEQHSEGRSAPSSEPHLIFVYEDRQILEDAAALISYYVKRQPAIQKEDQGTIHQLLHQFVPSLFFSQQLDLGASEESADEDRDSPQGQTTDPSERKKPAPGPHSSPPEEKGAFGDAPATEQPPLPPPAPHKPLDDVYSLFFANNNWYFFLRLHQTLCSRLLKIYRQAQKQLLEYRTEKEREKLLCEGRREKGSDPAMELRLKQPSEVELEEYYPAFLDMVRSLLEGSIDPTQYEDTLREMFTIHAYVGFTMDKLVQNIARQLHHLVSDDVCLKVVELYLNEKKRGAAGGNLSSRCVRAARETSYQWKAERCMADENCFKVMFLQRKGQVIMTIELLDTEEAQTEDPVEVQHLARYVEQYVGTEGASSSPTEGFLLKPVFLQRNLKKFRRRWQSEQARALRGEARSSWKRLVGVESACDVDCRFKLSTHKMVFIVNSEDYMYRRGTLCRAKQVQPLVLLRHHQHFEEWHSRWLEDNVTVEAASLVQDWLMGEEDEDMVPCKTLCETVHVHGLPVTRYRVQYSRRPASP
Put plainly: co-IP; endogenous proteins in NP-40 buffer lysates (20 mM Tris-HCl pH 7.4, 100 mM NaCl, 0.5 mM EDTA, 0.5% NP-40) of human cell lines (KB, HEK293, HCT116, H1299); 2 mg total protein with 1 µg antibody (anti-p53, anti-HDAC1 or anti-Sin3B), immunoblot of the partner; KB cells also after 1.0 µg/ml Adriamycin.

Assay [2] has as its target T1, human Sin3B (human (endogenous in KB, HEK293, HCT116, H1299)). Put plainly: co-IP; reciprocal IP in KB cell extract with mouse anti-Sin3B (sc-13145), detection by anti-p53 (sc-98), ImmunoCruz IP/WB Optima E System.
Assay [3] deals with T2, pGBKT7-Sin3B(1–399) (human) (UniProt O75182).
T2 sequence: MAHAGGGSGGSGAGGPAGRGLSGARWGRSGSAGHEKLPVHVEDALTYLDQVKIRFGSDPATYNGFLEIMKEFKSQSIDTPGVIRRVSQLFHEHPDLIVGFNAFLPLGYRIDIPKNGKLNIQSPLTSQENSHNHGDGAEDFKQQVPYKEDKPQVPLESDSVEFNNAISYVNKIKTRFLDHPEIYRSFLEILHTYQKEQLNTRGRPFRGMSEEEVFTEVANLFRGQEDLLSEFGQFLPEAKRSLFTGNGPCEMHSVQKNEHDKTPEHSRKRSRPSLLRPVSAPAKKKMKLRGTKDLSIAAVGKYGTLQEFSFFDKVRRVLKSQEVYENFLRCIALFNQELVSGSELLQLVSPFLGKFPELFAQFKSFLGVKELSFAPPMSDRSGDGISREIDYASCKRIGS
Put plainly: two-hybrid; Matchmaker Two Hybrid System 3, yeast AH109; Sin3B fragments on GAL4 DNA binding domain (bait, pGBKT7), p53 on GAL4 activation domain (prey, pGADT7); growth and blue colonies on SD QDO-Xgal.

Assay [4] concerns the target T3, Sin3B(1–247) (human) (UniProt O75182).
T3 sequence: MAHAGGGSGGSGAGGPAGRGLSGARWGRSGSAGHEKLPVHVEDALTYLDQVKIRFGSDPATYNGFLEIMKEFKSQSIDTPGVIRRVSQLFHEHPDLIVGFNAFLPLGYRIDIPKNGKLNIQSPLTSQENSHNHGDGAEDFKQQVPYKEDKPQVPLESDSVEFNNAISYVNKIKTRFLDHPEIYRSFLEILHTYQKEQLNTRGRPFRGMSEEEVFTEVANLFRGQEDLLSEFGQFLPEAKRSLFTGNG
The assay is described as above.

Assay [5] deals with T4, Sin3B(1–179) (human) (UniProt O75182).
T4 sequence: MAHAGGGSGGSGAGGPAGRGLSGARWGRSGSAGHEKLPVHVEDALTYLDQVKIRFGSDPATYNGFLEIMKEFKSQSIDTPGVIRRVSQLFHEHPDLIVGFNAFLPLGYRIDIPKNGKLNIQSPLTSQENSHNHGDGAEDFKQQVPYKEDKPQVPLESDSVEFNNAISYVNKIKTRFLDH
Described as above.

In assay [6] the target is T5, Sin3B(168–399) (human) (UniProt O75182).
T5 sequence: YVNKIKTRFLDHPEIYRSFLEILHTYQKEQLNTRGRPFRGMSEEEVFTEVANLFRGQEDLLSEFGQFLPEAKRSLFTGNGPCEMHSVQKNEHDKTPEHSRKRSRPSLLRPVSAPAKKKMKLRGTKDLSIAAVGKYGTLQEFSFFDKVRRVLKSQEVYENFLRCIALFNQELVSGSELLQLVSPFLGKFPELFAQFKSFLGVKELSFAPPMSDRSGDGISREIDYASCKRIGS
The description is as above.

Assay [7] has as its target T6, pGBKT7-Sin3B(442–1162) (human) (UniProt O75182).
T6 sequence: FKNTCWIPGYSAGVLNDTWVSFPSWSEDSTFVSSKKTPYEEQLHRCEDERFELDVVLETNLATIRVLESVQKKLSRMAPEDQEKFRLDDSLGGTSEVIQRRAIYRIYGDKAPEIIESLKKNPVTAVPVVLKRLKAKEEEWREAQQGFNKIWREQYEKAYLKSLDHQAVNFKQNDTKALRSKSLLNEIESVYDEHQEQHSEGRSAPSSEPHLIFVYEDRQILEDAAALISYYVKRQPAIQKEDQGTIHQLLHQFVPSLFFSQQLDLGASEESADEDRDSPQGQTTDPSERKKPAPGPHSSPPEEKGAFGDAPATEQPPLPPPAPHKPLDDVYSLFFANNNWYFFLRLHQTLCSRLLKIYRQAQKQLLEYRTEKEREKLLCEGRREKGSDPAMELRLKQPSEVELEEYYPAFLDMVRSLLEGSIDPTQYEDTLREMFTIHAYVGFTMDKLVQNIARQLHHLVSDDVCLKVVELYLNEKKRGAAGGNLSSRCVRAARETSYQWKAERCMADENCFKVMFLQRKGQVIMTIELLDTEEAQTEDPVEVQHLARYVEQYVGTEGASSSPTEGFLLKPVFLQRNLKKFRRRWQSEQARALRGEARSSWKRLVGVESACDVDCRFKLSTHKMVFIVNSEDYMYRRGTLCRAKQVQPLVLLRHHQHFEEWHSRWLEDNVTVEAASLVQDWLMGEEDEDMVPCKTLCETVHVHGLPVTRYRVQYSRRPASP
The description is as above.

As for HDAC1 (from UniProt Q13547 1-482), in assay [1], the binding entry is on record as “binds”.

For human p53 (from UniProt P04637 1-393), the binding result in assay [2] is “binds”.

As to “pGADT7-hp53(1–108) (from UniProt P04637 1-108) (domain or fragment)”, the binding result in assay [3] is listed as “binds”. For “pGADT7-hp53 (full length human p53 fused with GAL4 activation domain) (from UniProt P04637 1-393)”, the binding entry in assay [4] was “no binding”; in assay [5], “no binding”; in assay [6], “binds”; in assay [7], “no binding”.
